# Data taken from PubChem BioAssay AID1671194 (National Center for Advancing Translational Sciences (NCATS), 2021).
# Hit rate of the full screen: of about 140,000 compounds, about 240 (0.17%) were called active. This list was built around the results that the source calls inconclusive (neither active nor inactive); the mix of calls is not that of the screen. Calls follow the shape of the dose curve; as a rule, active = well fitted inhibition curve with a large enough effect; inconclusive = small, poorly fitted or top-dose-only effect; inactive = no such curve, though single readings can be large or run the other way. A potency beside an inconclusive call is a rough fit, not a confirmed value.
# Assay: Primary qHTS assay for inhibitors of alpha-synuclein gene (SNCA) expression; also: nearly all actives have a fitted effect of over 45% in size;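 as to activity change, negative = inhibition: plate controls were DMSO cells for no effect and cell-free wells for full effect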
# Conditions: HEK-293 SNCA-luciferase knock-in, luminescence, 24 h; activity change, negative = inhibition: at 57.2 µM (top of the series) unless noted
# Potency is read from the fitted curve at half-maximal effect; tags tell the direction and shape of the fitted curve.
Structure (SMILES),Potency,"activity change, negative = inhibition"
CC(C)c1cc(C(=O)N2Cc3ccc(CN4CCN(C)CC4)cc3C2)c(O)cc1O,"inconclusive: 0.429 µM [inhibitor, full curve]",–
Cc1ccc(N2CCN(C(=O)c3cnn(-c4ccc(C)c(C)c4)c3C3CCNCC3)CC2)c(C)c1,"inconclusive: 20 µM [inhibitor, single point]",–
O=C(O)C1CCc2nnc(C3CCN(C(=O)c4ccc5c(c4)OC(F)(F)O5)C3)n21 (stereo not drawn),"inconclusive: 0.794 µM [inhibitor, full curve, poor fit]",–
Nc1c(C(=O)NCc2ccc(Cl)cc2)sc2nc(-c3ccc(F)cc3)ccc12,–,inactive: -13.7%
COc1ccc(CCC(=O)N2CCCC(Cn3c(C)cnc3-c3ccncc3)C2)cc1 (stereo not drawn),–,inactive: 17.1%
O=C(NCc1nnc2c(-c3nc(C4CC4)no3)cccn12)c1cc(Cl)ccc1F,–,inactive: -14.3%
COCCN1CCC2(CCC1=O)CCN(C(=O)Nc1cc(Cl)ccc1C)CC2,"inconclusive: 28.2 µM [inhibitor, single point]",–
Clc1ccc(-c2nnc([C@H]3CCN(Cc4c[nH]c5ccccc45)C3)o2)cc1,–,inactive: 40.6% [at 87.6 µM]
CC(C)(C)c1noc(-c2nnn3c2COC(c2ccc(F)cc2)C3)n1 (stereo not drawn),–,inactive: -21.3%
O=C1C2C=CC=CC2=NC(=S)N1CCN1CCC(=C(c2ccc(F)cc2)c2ccc(F)cc2)CC1 (stereo not drawn),"inconclusive: 0.631 µM [inhibitor, single point]",–
COc1ccc(NC(=O)O[C@@H]2CC[C@]3(C)C(CC[C@@H](O)[C@H]3CC(=O)NCc3ccc4c(c3)OCO4)[C@]2(C)CO)cc1 (stereo partly drawn),–,inactive: 19.8%
COc1ccc(-c2cnc3[nH]cc(CC(=O)N4CCC(OC)CC4)c3c2)cc1,–,inactive: 10.2% [at 87.6 µM]
O=C(c1ccc(Cl)cc1)N1CC2(CCN(CC3CC3)CC2)Cc2ccccc21,"inconclusive: 31.6 µM [inhibitor, partial curve, poor fit]",–
O=S(=O)(N[C@H]1CO[C@H]2[C@@H]1OC[C@@H]2n1nnnc1Oc1ccc(-n2ccnc2)cc1)c1ccc2ccccc2c1,"inconclusive: 7.08 µM [inhibitor, partial curve, poor fit]",–
CCC(=O)N1c2ccccc2CC1C(=O)N1CCN(c2ccccc2F)CC1 (stereo not drawn),"inconclusive: 39.8 µM [inhibitor, single point]",–
COc1ccc(S(=O)(=O)N2C[C@@H](Oc3cccnc3)C[C@@H]2C(=O)N2CCOCC2)cc1,"inconclusive: 14.1 µM [inhibitor, partial curve, poor fit]",–
COc1ccccc1-c1cnc(Nc2cccc(N[S+](C)(=O)[O-])c2)c2c1CCO2,"inconclusive: 3.98 µM [inhibitor, partial curve, poor fit]",–
COc1ccc(Cn2cc(C(C(=O)O)N(C)Cc3nnc(C)o3)cn2)cc1 (stereo not drawn),–,inactive: -10.2%
N#Cc1ccccc1CN1CC[C@H]2C(=O)NCCCCCCN(Cc3ccncc3)[C@@H]2C1,"inconclusive: 7.08 µM [inhibitor, single point]",–

Structure (SMILES),Potency,"activity change, negative = inhibition"
Cc1ccc(S(=O)(=O)C(CNS(=O)(=O)c2ccc(F)c(C(F)(F)F)c2)c2ccco2)cc1 (stereo not drawn),"inconclusive: 28.2 µM [inhibitor, single point]",–
O=C(Nc1ccc(=O)n2c1[C@@H]1C[C@@H](CN(S(=O)(=O)c3ccccc3)C1)C2)c1ccc2c(c1)OCO2,"inconclusive: 39.8 µM [inhibitor, single point]",–
COc1cccc(CC(=O)N2CCCn3nc(C)c(-c4ccccc4C(C)C)c32)c1,"inconclusive: 31.6 µM [inhibitor, partial curve, poor fit]",–
CC(CNC(=O)C1CCN(C(=O)c2cc3sccc3n2C)CC1)c1ccccc1 (stereo not drawn),"inconclusive: 0.891 µM [inhibitor, partial curve, poor fit]",–
CN(Cc1ccc(-c2ccccc2)cc1)C(=O)c1cccc(Cl)c1,"inconclusive: 56.2 µM [inhibitor, single point]",–
CC1=C[C@@H](CNCc2ccccc2O)[C@H](C(C)C)C[C@H]1Cc1nc2c(C)cccc2[nH]1,"inconclusive: 7.94 µM [inhibitor, partial curve, poor fit]",–
COc1cc(CN(C(=O)c2ccc(Cl)cc2)C2CCS(=O)(=O)C2)cc(OC)c1OC (stereo not drawn),"inconclusive: 7.08 µM [inhibitor, partial curve, poor fit]",–
CC1=C[C@@H](CNCc2ccccc2F)[C@H](C(C)C)C[C@H]1Cc1nc2c(C)cccc2[nH]1,"inconclusive: 35.5 µM [inhibitor, single point]",–
COc1ccc(C(=O)N2CCC(C(=O)N3CCC(c4nc5ncccc5[nH]4)CC3)CC2)cc1,–,inactive: -3.68%
CCOc1ccc(-c2nc3cc(NC(=O)COc4cccc(C)c4)ccc3o2)cc1,"inconclusive: 3.16 µM [inhibitor, full curve, poor fit]",–
COc1cc(OC)cc(C(=O)N2CCCC(n3cc(-c4nc(-c5ccccc5)no4)nn3)C2)c1 (stereo not drawn),–,inactive: -0.048%
OCC1(Cc2ccc(F)cc2F)CCCN(c2cnc3ccccc3n2)C1 (stereo not drawn),"inconclusive: 28.2 µM [inhibitor, single point]",–
Cc1c(Cl)cccc1NC(=O)Nc1ccc2snnc2c1,"inconclusive: 7.08 µM [inhibitor, full curve]",–
COc1ccc(-n2c(=O)c(C(=O)NCc3cccc(F)c3)nc3cccnc32)cc1,"inconclusive: 39.8 µM [inhibitor, single point]",–
O=c1cc(-c2ccccn2)oc2c(NCc3ccccc3)nccc12,–,inactive: -11.4% [at 87.6 µM]
Cc1noc([C@H]2CCN(Cc3cc(F)cc(F)c3)C[C@H]2NC(=O)C2CC2)n1,"inconclusive: 39.8 µM [inhibitor, single point]",–
CCOc1ccc(NC(=O)C(C)n2c(=O)cc(C)c3c(C)nn(-c4ccccc4)c32)cc1 (stereo not drawn),"inconclusive: 25.1 µM [inhibitor, single point]",–
Cc1nnc(CNC(=O)C2CCC(=O)N(CCN3CCOCC3)C2)o1 (stereo not drawn),"inconclusive: 6.31 µM [inhibitor, single point]",–
CCCOc1ccccc1C1C(C(=O)Nc2ccccc2)=C(C)Nc2nnnn21 (stereo not drawn),"inconclusive: 7.08 µM [inhibitor, full curve, poor fit]",–
